# Measurements reported in PubChem BioAssay AID1671194 (National Center for Advancing Translational Sciences (NCATS), 2021).
# In all, about 140,000 compounds went through this assay and about 240 (0.17%) were called active. Inconclusive results, whose numbers are uncertain, are shown with a selection of clear calls. Calls follow the shape of the dose curve; as a rule, active = well fitted inhibition curve with a large enough effect; inconclusive = small, poorly fitted or top-dose-only effect; inactive = no such curve, though single readings can be large or run the other way. Where the call is inconclusive, the potency comes from a doubtful curve fit.
# Experiment: Primary qHTS assay for inhibitors of alpha-synuclein gene (SNCA) expression; also: nearly all actives have a fitted effect of over 45% in size;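 as to activity change, negative = inhibition: plate controls were DMSO cells for no effect and cell-free wells for full effect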
# Conditions: HEK-293 SNCA-luciferase knock-in, luminescence, 24 h; activity change, negative = inhibition: at 57.2 µM (top of the series) unless noted
# Potency is read from the fitted curve at half-maximal effect; tags tell the direction and shape of the fitted curve.
Structure (SMILES),Potency,"activity change, negative = inhibition"
CN1C(=O)CS(=O)(=O)C12CCN(C(=O)c1ccco1)CC2,"inconclusive: 3.55 µM [inhibitor, full curve, poor fit]",
Cc1ccc(CNC(=O)C2CCN(C(=O)N3CC4CC(C3)[C@H]3CCCC(=O)N3C4)CC2)o1 (some centres not stated),"inconclusive: 35.5 µM [inhibitor, single point]",
CN(C)c1ccc(-c2cc3c(ccn3C)c(C(=O)NCc3cccnc3)n2)cc1,,inactive: 126% [at 87.6 µM]
C[S+](=O)([O-])Nc1ccc(C(O)[C@H]2COCC(=O)N2Cc2ccc(F)cc2)cc1 (some centres not stated),"inconclusive: 56.2 µM [inhibitor, single point]",
CN(C)c1nccnc1OC1CCN(C(=O)CCCc2ccccc2)C1 (configuration not stated),,inactive: 111%
Cc1ccncc1-c1c(C)nn2c1N(Cc1ccc(C(=O)O)cc1)CCC2,"inconclusive: 7.94 µM [inhibitor, single point]",
O=C(CSC1=Nc2ccccc2C2=NC(Cc3ccccc3)C(=O)N12)Nc1cccc(Cl)c1 (configuration not stated),"inconclusive: 28.2 µM [inhibitor, single point]",
O=C(N[C@H]1CCN2C(=O)c3cc(-c4cccc(C(F)(F)F)c4)ccc3NC(=O)[C@@H]2C1)c1ccncc1,"inconclusive: 2 µM [inhibitor, partial curve, poor fit]",
CCOC(=O)c1c(-c2ccccc2)oc2ccc(NS(=O)(=O)c3ccc(C)cc3)cc12,"inconclusive: 39.8 µM [inhibitor, partial curve, poor fit]",
CCN1C(=O)c2ccccc2Sc2ccc(NC(=O)Nc3cc(C)cc(C)c3)cc21,"inconclusive: 10 µM [inhibitor, partial curve, poor fit]",
Cc1cc(OCCN2CCOCC2)c(C)c2c1CC[C@@H]([C@H](C)C(=O)N1CCCCC1)C2,"inconclusive: 31.6 µM [inhibitor, single point]",
OCC1(Cc2ccccc2)CCCN(Cc2cn[nH]c2-c2ccc(F)cc2)C1 (configuration not stated),"inconclusive: 12.6 µM [inhibitor, single point]",
CC(C)CCNC(=O)CCCn1c(=O)c2cccn2c2ccccc21,"inconclusive: 2.82 µM [inhibitor, single point]",
O=c1[nH]nc(Sc2ncc([N+](=O)[O-])s2)n1-c1ccc2c(c1)OCCO2,"inconclusive: 10.8 µM [inhibitor, partial curve, poor fit]",
COc1cccc(CNC(=O)c2nn(C)c3c2CSc2ccccc2-3)c1,,inactive: -3.81%
CN(Cc1ccccn1)C(=O)CC(c1cccc(O)c1)c1ccccc1Cl (configuration not stated),"inconclusive: 12.6 µM [inhibitor, partial curve, poor fit]",
COc1ccc(CN2CC(CN[S+](=O)([O-])c3ccccc3)C3(C2)CN(c2ccccc2)C3)cc1O (configuration not stated),"inconclusive: 10 µM [inhibitor, partial curve, poor fit]",
Cc1cc(C)cc(NC(=O)CN2C(=O)c3ccccc3Sc3ccc(C(=O)N4CCCC4)cc32)c1,"inconclusive: 22.4 µM [inhibitor, single point]",
CC(C)[C@@H](CS(=O)(=O)C(C)C)N1C(=O)[C@@](C)(CC(=O)O)C[C@H](c2cccc(Cl)c2)[C@H]1c1ccc(Cl)cc1,"inconclusive: 4.28 µM [inhibitor, full curve, poor fit]",
CCOc1cccc(CN2CCC3(Cc4ccccc4CNC3=O)C2)c1 (configuration not stated),,inactive: 0.414%
CN(C)C[C@@H]1CN(c2ncccn2)C[C@H]1NC(=O)Cc1c[nH]c2ccccc12,"inconclusive: 8.91 µM [inhibitor, partial curve, poor fit]",

Structure (SMILES),Potency,"activity change, negative = inhibition"
CC(=O)N1CCCC2(C1)CN(C)c1ccc(C(=O)NC(C)C)cc12 (configuration not stated),,inactive: -4.56% [at 87.6 µM]
O=C(Cc1ccsc1)N1CC(Oc2ccccc2-c2nc(C3CC3)no2)C1,,inactive: 0.2%
Cc1cccc(-c2nc(C3CC(=O)N(c4ccc(Cl)cc4)C3)no2)c1 (configuration not stated),"inconclusive: 1 µM [inhibitor, single point]",
O=C(Nc1ccc2oc(-c3cccnc3)nc2c1)c1ccccc1F,,inactive: 55.1%
O=c1c2c3c(nn2ccn1Cc1cc(F)cc(F)c1)CCCC3,,inactive: 11.1%
CN1[C@@H](CCC(=O)N2CCN(c3ccccc3)CC2)CNC(=O)[C@@H]2[C@H]1CCN2Cc1csnn1,"inconclusive: 35.5 µM [inhibitor, single point]",
O=C(NCc1cccnc1)c1nc(-c2cccc(F)c2)c2cnccn12,inactive,
CC/C(=C(\c1ccccc1)c1ccc(OCCN(C)C)cc1)c1ccccc1,"inconclusive: 39.8 µM [inhibitor, single point]",
CCC1CN(C(=O)c2ccc3nc(-c4ccccc4)cn3c2)CCN1C(C)C (configuration not stated),,inactive: 14.2%
CN1CCN(c2cc(=O)c3ccnc(Nc4ccc(F)c(Cl)c4)c3o2)CC1,"inconclusive: 8.91 µM [inhibitor, full curve, poor fit]",
COc1ccc(CN2CCCC3(C2)C(=NC2CCCCC2)NC(=O)N3c2cc(F)cc(F)c2)cc1 (configuration not stated),"inconclusive: 39.8 µM [inhibitor, partial curve, poor fit]",
CC(C(=O)N1CCc2onc(-c3cccc4ccccc34)c2C1)n1ccnc1 (configuration not stated),,inactive: -8.61%
CCOC(=O)C1=CN(CC(=O)Nc2cccc(C(C)C)c2)S(=O)(=O)N=C1C,"inconclusive: 39.8 µM [inhibitor, single point]",
CN(C)CCNC(=O)c1nc2nc(-c3ccccc3)c(-c3cccnc3)cc2n1C,"inconclusive: 56.2 µM [inhibitor, single point]",
Cc1ccc(CN2CC3ON=C(C(=O)O)C3C2)cc1 (configuration not stated),"inconclusive: 0.891 µM [inhibitor, full curve, poor fit]",
O=C(c1ccccn1)N1CCC(c2cc(-c3ccccc3)n[nH]2)CC1,,inactive: -9.63%
Cc1nc2c(OCC(=O)OC(C)(C)C)cccn2c(=O)c1-c1cc(C)n(-c2ccc(Cl)cc2)n1,,inactive: -1.87%
COc1ccc(-c2ccc3ncc(Nc4cc(F)cc(N5CCOCC5)c4)n3n2)cc1OC,"inconclusive: 39.8 µM [inhibitor, single point]",
Cc1ccc(C)c(N2CCN(C(=O)CCn3ccn4nc5c(c4c3=O)CCCC5)CC2)c1,"inconclusive: 12.6 µM [inhibitor, partial curve, poor fit]",
Cc1ccc(C)c(-c2nn(CC(=O)Nc3cc(F)ccc3F)c(=O)c3c2CCCC3)c1,"inconclusive: 28.2 µM [inhibitor, single point]",
CCOc1cccc(CC(=O)N2CCc3c([nH]c4ccccc34)C2c2ccc(C)cc2)c1OCC (configuration not stated),"inconclusive: 2.51 µM [inhibitor, single point]",

Structure (SMILES),Potency,"activity change, negative = inhibition"
CC(CNC(=O)c1ccc(CSc2nc3ccncc3n2Cc2cccc(F)c2)cc1)c1ccccc1 (configuration not stated),"inconclusive: 7.94 µM [inhibitor, partial curve]",
COCc1cc(=O)n(CC(=O)Nc2ccc(Cl)cc2)c(N2CCOCC2)n1,"inconclusive: 39.8 µM [inhibitor, single point]",
Cc1ccc(-c2cc(C(F)(F)F)n3nc(C(=O)Nc4sc5c(c4C#N)CCC(C)C5)cc3n2)cc1 (configuration not stated),"inconclusive: 39.8 µM [inhibitor, single point]",
CC(=O)c1ccc(N2CCN(S(=O)(=O)c3cc(-c4onc(C)c4C)ccc3C)CC2)cc1,"inconclusive: 3.98 µM [inhibitor, single point]",
CC(C)c1ccc(C(=O)N2CCC(Oc3ccc(C(=O)N(C)C)cn3)CC2)cc1,,inactive: 13.9%
O=C(COc1ccccc1)N1CCC(c2nc(C3CCOCC3)no2)C1 (configuration not stated),"inconclusive: 39.8 µM [inhibitor, single point]",
COC(=O)c1cccc(NC(=O)C2CCc3sc(C(=O)N4CCOCC4)cc3C2)c1 (configuration not stated),"inconclusive: 7.08 µM [inhibitor, single point]",
O=C(NCc1ccc(F)cc1)c1ccnc(-c2nnc3ccc(Nc4ccccc4)nn23)c1,"inconclusive: 5.62 µM [inhibitor, full curve, poor fit]",
CN(c1ccc(Cl)c(Cl)c1)C1CNC1,,inactive: -5.78% [at 87.6 µM]
COc1ccc(C(=O)N2C[C@H](C(N)=O)[C@H]3c4ccccc4N(C)C(=O)[C@]32C)cc1OC,,inactive: 20.5% [at 25.6 µM]
COc1cccc(NC(=O)CN2C(=O)NC(c3ccccc3Cl)C3=C2COC3=O)c1 (configuration not stated),"inconclusive: 0.891 µM [inhibitor, full curve, poor fit]",
C=Cc1ccc(CSc2nc(-c3ccccc3C)nc3c2Cc2c(CO)cnc(C)c2O3)cc1,"inconclusive: 25.1 µM [inhibitor, partial curve, poor fit]",
FC(F)(F)c1cccc2c(N3CCC4(CCCN4Cc4ncc[nH]4)CC3)ccnc12,,inactive: 73.3%
COCc1nc(-c2ccc(OC3CCN(C(=O)c4nn(C)c5ccccc45)C3)cc2)no1 (configuration not stated),"inconclusive: 7.94 µM [inhibitor, full curve, poor fit]",
O=C(NC1CCCCC1)N1CCC(c2noc(-c3ccccc3)n2)C1 (configuration not stated),"inconclusive: 6.31 µM [inhibitor, partial curve]",
Cc1ccc(-c2cn3cc(C(=O)NCc4cccs4)nc3s2)cc1,,inactive: 125% [at 87.6 µM]
Cc1ccc(NC(=O)C2CCN(S(=O)(=O)c3ccc4c(c3)CCCC(=O)N4)CC2)c(Br)c1,"inconclusive: 39.8 µM [inhibitor, partial curve, poor fit]",
O=[S+]([O-])(NC1CCN(Cc2cccc(-c3cccs3)c2)CC1)c1cccc(C(F)(F)F)c1,"inconclusive: 15.8 µM [inhibitor, partial curve, poor fit]",
O=C(CSc1nc2ccccc2nc1Cc1ccc(Cl)cc1)N1CCCCC1,"inconclusive: 39.8 µM [inhibitor, single point]",
CCCCOC(=O)c1ccc(NC(=O)c2ccc3c(c2)CCCN3S(C)(=O)=O)cc1,"inconclusive: 39.8 µM [inhibitor, single point]",
